Measured values taken from patent publication US20180094059A1 (UNIVERSITAT STUTTGART, published 2018).

B3: TRAIL-R1-Fc (Fc fusion)
chain: not shown
notes: extracellular domain; also called DR4-Fc; not shown: Fc-part

Key:
[1] = biological target: EGFR on EGFR-positive tumor cell lines (UniProt P00533); assay: cell-based or functional assay
TRAIL-R2-Fc [2] = biological target: T1, TRAIL-R2-Fc (human, UniProt O14763 56-210); assay: ELISA, TRAIL R2-Fc
T1 construct: extracellular domain; also called DR5-Fc; DR5-Fc fusion protein; not shown: Fc-part

TRAIL-R1-Fc [3] = biological target: B3; assay: ELISA, TRAIL R1-Fc
TRAIL-R1-Fc, sequence (O00220 24-239): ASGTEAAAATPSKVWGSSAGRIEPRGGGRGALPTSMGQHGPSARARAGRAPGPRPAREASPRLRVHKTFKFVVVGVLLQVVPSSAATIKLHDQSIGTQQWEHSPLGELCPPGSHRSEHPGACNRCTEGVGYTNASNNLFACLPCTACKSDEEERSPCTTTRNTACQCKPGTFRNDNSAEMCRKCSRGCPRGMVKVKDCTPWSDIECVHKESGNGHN

[4] = biological target: T2, scTRAIL3-… (Homo sapiens (Human), UniProt P50591 118-281); assay: ELISA, TRAIL R1-Fc
T2 construct: additional N-terminal FLAG tag; also called monomeric control protein

TRAIL-R1-Fc [5] = biological target: B3; assay: ELISA, TRAIL R1-Fc; remark: listed apart in the source
TRAIL-R2-Fc [6] = biological target: T1, TRAIL-R2-Fc; assay: ELISA, TRAIL R2-Fc; remark: listed apart in the source
TRAIL-R2-Fc [7] = biological target: T1, TRAIL-R2-Fc; assay: ELISA, TRAIL-R2-Fc

B1: scFvhu225-Fc-scTRAIL3-FLVGGGPQRVA (Fc fusion)
chain: DYKDDDDKGGGGSGTEVQLVESGGGLVQPGGSLRLSCAASGFSLTNYGVHWVRQAPGKGLEWLGVIWSGGNTDYNTPFTSRFTISRDNSKNTLYLQMNSLRAEDTAVYYCARALTYYDYEFAYWGQGTTVTVSSGGGGSGGGGSGGGGSDIQLTQSPSFLSASVGDRVTITCRASQSIGTNIHWYQQKPGKAPKLLIKYASESISGVPSRFSGSGSGTEFTLTISSLQPEDFATYYCQQNNNWPTTFGAGTKLEIKRAAAGGSGG[sequence of human IgG1 Fc omitted]GGSGGGSSGGGPQRVAAHITGTRGRSNTLSSPNSKNEKALGRKINSWESSRSGHSFLSNLHLRNGELVIHEKGFYYIYSQTYFRFQEEIKENTKNDKQMVQYIYKYTSYPDPILLMKSARNSCWSKDAEYGLYSIYQGGIFELKENDRIFVSVTNEHLIDMDHEASFFGAFLVGGGPQRVAAHITGTRGRSNTLSSPNSKNEKALGRKINSWESSRSGHSFLSNLHLRNGELVIHEKGFYYIYSQTYFRFQEEIKENTKNDKQMVQYIYKYTSYPDPILLMKSARNSCWSKDAEYGLYSIYQGGIFELKENDRIFVSVTNEHLIDMDHEASFFGAFLVGGGPQRVAAHITGTRGRSNTLSSPNSKNEKALGRKINSWESSRSGHSFLSNLHLRNGELVIHEKGFYYIYSQTYFRFQEEIKENTKNDKQMVQYIYKYTSYPDPILLMKSARNSCWSKDAEYGLYSIYQGGIFELKENDRIFVSVTNEHLIDMDHEASFFGAFLVG
notes: Dimeric EGFR-targeting fusion protein; also called scFv-Fc-scTRAIL3
[1]
  EC50 of cell death induction, Colo205, with bortezomib: 0.0023 nM
  EC50 of cell death induction, Colo205, without bortezomib: 0.0125 nM
  EC50 of cell death induction, Colo205 in presence of Cetuximab, with bortezomib: 0.0057 nM
  EC50 of cell death induction, Colo205 in presence of Cetuximab, without bortezomib: 0.0662 nM

B2: scTRAIL3-FAVSGAA-Fc-scTRAIL3-FAVSGAA (Fc fusion)
chain: DYKDDDDKGGGGSGTGGAAAHITGTRGRSNTLSSPNSKNEKALGRKINSWESSRSGHSFLSNLHLRNGELVIHEKGFYYIYSQTYFRFQEEIKENTKNDKQMVQYIYKYTSYPDPILLMKSARNSCWSKDAEYGLYSIYQGGIFELKENDRIFVSVTNEHLIDMDHEASFFGAFAVSGAAAHITGTRGRSNTLSSPNSKNEKALGRKINSWESSRSGHSFLSNLHLRNGELVIHEKGFYYIYSQTYFRFQEEIKENTKNDKQMVQYIYKYTSYPDPILLMKSARNSCWSKDAEYGLYSIYQGGIFELKENDRIFVSVTNEHLIDMDHEASFFGAFAVSGAAAHITGTRGRSNTLSSPNSKNEKALGRKINSWESSRSGHSFLSNLHLRNGELVIHEKGFYYIYSQTYFRFQEEIKENTKNDKQMVQYIYKYTSYPDPILLMKSARNSCWSKDAEYGLYSIYQGGIFELKENDRIFVSVTNEHLIDMDHEASFFGAFAVSGSGNGTSNGTSGSSRT[sequence of human IgG1 Fc omitted]GSGNGTSNGTSGSSGGAAAHITGTRGRSNTLSSPNSKNEKALGRKINSWESSRSGHSFLSNLHLRNGELVIHEKGFYYIYSQTYFRFQEEIKENTKNDKQMVQYIYKYTSYPDPILLMKSARNSCWSKDAEYGLYSIYQGGIFELKENDRIFVSVTNEHLIDMDHEASFFGAFAVSGAAAHITGTRGRSNTLSSPNSKNEKALGRKINSWESSRSGHSFLSNLHLRNGELVIHEKGFYYIYSQTYFRFQEEIKENTKNDKQMVQYIYKYTSYPDPILLMKSARNSCWSKDAEYGLYSIYQGGIFELKENDRIFVSVTNEHLIDMDHEASFFGAFAVSGAAAHITGTRGRSNTLSSPNSKNEKALGRKINSWESSRSGHSFLSNLHLRNGELVIHEKGFYYIYSQTYFRFQEEIKENTKNDKQMVQYIYKYTSYPDPILLMKSARNSCWSKDAEYGLYSIYQGGIFELKENDRIFVSVTNEHLIDMDHEASFFGAFAVS
modifications: two 16 aa linkers with N-glycosylation sites
notes: Tetrameric assembly of scTRAIL3-FAVSGAA
TRAIL-R2-Fc [2]
  binding result: binds
TRAIL-R1-Fc [3]
  binding result: binds

## B3
[4]
  binding result: binds

B4: scTRAIL3-FAVSGAA-“W”-Fc (Fc fusion)
chain: DYKDDDDKGGGGSGTGGAAAHITGTRGRSNTLSSPNSKNEKALGRKINSWESSRSGHSFLSNLHLRNGELVIHEKGFYYIYSQTYFRFQEEIKENTKNDKQMVQYIYKYTSYPDPILLMKSARNSCWSKDAEYGLYSIYQGGIFELKENDRIFVSVTNEHLIDMDHEASFFGAFAVSGAAAHITGTRGRSNTLSSPNSKNEKALGRKINSWESSRSGHSFLSNLHLRNGELVIHEKGFYYIYSQTYFRFQEEIKENTKNDKQMVQYIYKYTSYPDPILLMKSARNSCWSKDAEYGLYSIYQGGIFELKENDRIFVSVTNEHLIDMDHEASFFGAFAVSGAAAHITGTRGRSNTLSSPNSKNEKALGRKINSWESSRSGHSFLSNLHLRNGELVIHEKGFYYIYSQTYFRFQEEIKENTKNDKQMVQYIYKYTSYPDPILLMKSARNSCWSKDAEYGLYSIYQGGIFELKENDRIFVSVTNEHLIDMDHEASFFGAFAVSGGSGEAAAKEAAAKEAAAKEAAAKEAAAKGSGG[sequence of human IgG1 Fc omitted]
notes: 33 aa alpha-helical linker; dimeric; also called scTRAIL3-“W”-FAVSGAA-Fc
TRAIL-R1-Fc [5]
  EC50: 3.91 nM
TRAIL-R2-Fc [6]
  EC50: 0.54 nM

B5: scFv4D5-EHD2-scTRAIL3-FLVGGGPQRVA (other)
chain: DYKDDDDKGGGGSGT[sequence of about 120 residues omitted]GGGGSGGGGSGGGGS[sequence of about 100 residues omitted]RAAAGGSGGDFTPPTVKILQSSCDGGGHFPPTIQLLCLVSGYTPGTINITWLEDGQVMDVDLSTASTTQEGELASTQSELTLSQKHWLSDRTYTCQVTYQGHTFEDSTKKCADSNGGSGGASSGGGPQRVAAHITGTRGRSNTLSSPNSKNEKALGRKINSWESSRSGHSFLSNLHLRNGELVIHEKGFYYIYSQTYFRFQEEIKENTKNDKQMVQYIYKYTSYPDPILLMKSARNSCWSKDAEYGLYSIYQGGIFELKENDRIFVSVTNEHLIDMDHEASFFGAFLVGGGPQRVAAHITGTRGRSNTLSSPNSKNEKALGRKINSWESSRSGHSFLSNLHLRNGELVIHEKGFYYIYSQTYFRFQEEIKENTKNDKQMVQYIYKYTSYPDPILLMKSARNSCWSKDAEYGLYSIYQGGIFELKENDRIFVSVTNEHLIDMDHEASFFGAFLVGGGPQRVAAHITGTRGRSNTLSSPNSKNEKALGRKINSWESSRSGHSFLSNLHLRNGELVIHEKGFYYIYSQTYFRFQEEIKENTKNDKQMVQYIYKYTSYPDPILLMKSARNSCWSKDAEYGLYSIYQGGIFELKENDRIFVSVTNEHLIDMDHEASFFGAFLVG
notes: HER2-targeting EHD2 fusion
TRAIL-R2-Fc [7]
  EC50: 2.21 nM
